In publication PMC12820563, “FoxP3 forms a head-to-head dimer in vivo and stabilizes its multimerization on adjacent microsatellites” one finds binding signal data, which are given here for 34 sequences.

Some of the results follow.

The target in the assay is T1, MBP-FoxP1dN (Mus musculus, UniProt P58462 326-579).
T1 sequence: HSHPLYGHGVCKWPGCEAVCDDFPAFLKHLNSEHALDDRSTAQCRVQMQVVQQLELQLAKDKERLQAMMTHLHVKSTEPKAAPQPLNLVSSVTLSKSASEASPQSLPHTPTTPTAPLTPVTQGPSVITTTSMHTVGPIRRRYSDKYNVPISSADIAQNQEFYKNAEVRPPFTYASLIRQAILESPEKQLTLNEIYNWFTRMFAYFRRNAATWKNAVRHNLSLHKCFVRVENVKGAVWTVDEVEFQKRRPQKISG
The assay can be described thus: PD-seq (MBP pull-down with sequencing); 20 mM Tris-HCl pH 7.5, 100 mM NaCl, 1.5 mM MgCl2, 0.4 uM protein, 0.1 uM dsDNA library, 30 min, room temperature, amylose pull-down; high values mean tight binding. Particulars: protein: recombinant; tags: His6-MBP; chain copies: 2; dsDNA, one strand shown. In short, it runs like this: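 Mouse FoxP3 or FoxP1 fragment lacking the N-terminus, His6-MBP-tagged and expressed in E. coli, was incubated at 0.4 µM with 0.1 µM Klenow-filled degenerate double-stranded DNA library for 30 min at room temperature in Tris pH 7.5 buffer with NaCl and MgCl2. Complexes captured on amylose resin were washed three times and their DNA sequenced on Illumina. Binding is reads-per-million enrichment of pull-down over input, replicates pooled.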
Regarding “GATGATTGTTCTCCCAGCTGATGAATTGTCCCGCTCGAGTAAACAAATTTTCCTAATCTTTCTGTTCAAGCGCCATCTAC”, the binding signal is 0.906 RPM ratio (pull-down/input).
In the case of “GATGATTGTTCTCCCAGCTGATGAATTAAACATCTCGAGTAAACAAATTTTCCTAATCTTTCTGTTCAAGCGCCATCTAC” it was 1.29 RPM ratio (pull-down/input).
“GATGATTGTTCTCCCAGCTGATGAATTGGCATGATCGAGTAAACAAATTTTCCTAATCTTTCTGTTCAAGCGCCATCTAC”: the binding signal was 0.943 RPM ratio (pull-down/input).
The result for “GATGATTGTTCTCCCAGCTGATGAATTAGAAGCCTCGAGTAAACAAATTTTCCTAATCTTTCTGTTCAAGCGCCATCTAC” reads 0.893 RPM ratio (pull-down/input); that for “GATGATTGTTCTCCCAGCTGATGAATTCCCACGGTCGAGTAAACAAATTTTCCTAATCTTTCTGTTCAAGCGCCATCTAC”, 0.785 RPM ratio (pull-down/input).
In the case of “GATGATTGTTCTCCCAGCTGATGAATTGTCAGGGTCGAGTAAACAAATTTTCCTAATCTTTCTGTTCAAGCGCCATCTAC” it was 0.837 RPM ratio (pull-down/input); in that of “GATGATTGTTCTCCCAGCTGATGAATTTACAACCTCGAGTAAACAAATTTTCCTAATCTTTCTGTTCAAGCGCCATCTAC”, 1.21 RPM ratio (pull-down/input).
The result for “GATGATTGTTCTCCCAGCTGATGAATTTGGAGCGTCGAGTAAACAAATTTTCCTAATCTTTCTGTTCAAGCGCCATCTAC” reads 0.854 RPM ratio (pull-down/input); that for “GATGATTGTTCTCCCAGCTGATGAATTCGTCAGGTCGAGTAAACAAATTTTCCTAATCTTTCTGTTCAAGCGCCATCTAC”, 0.808 RPM ratio (pull-down/input).
Regarding “GATGATTGTTCTCCCAGCTGATGAATTTTGCCGATCGAGTAAACAAATTTTCCTAATCTTTCTGTTCAAGCGCCATCTAC”, the binding signal was 0.87 RPM ratio (pull-down/input).
The result for “GATGATTGTTCTCCCAGCTGATGAATTTGATAGATCGAGTAAACAAATTTTCCTAATCTTTCTGTTCAAGCGCCATCTAC” reads 0.908 RPM ratio (pull-down/input); that for “GATGATTGTTCTCCCAGCTGATGAATTCGCATTATCGAGTAAACAAATTTTCCTAATCTTTCTGTTCAAGCGCCATCTAC”, 1.24 RPM ratio (pull-down/input).
In the case of “GATGATTGTTCTCCCAGCTGATGAATTAAACTCTTCGAGTAAACAAATTTTCCTAATCTTTCTGTTCAAGCGCCATCTAC” it was 0.825 RPM ratio (pull-down/input).
Regarding “GATGATTGTTCTCCCAGCTGATGAATTCAGCCTATCGAGTAAACAAATTTTCCTAATCTTTCTGTTCAAGCGCCATCTAC”, the binding signal was 0.849 RPM ratio (pull-down/input).
In the case of “GATGATTGTTCTCCCAGCTGATGAATTAGTGGTCTCGAGTAAACAAATTTTCCTAATCTTTCTGTTCAAGCGCCATCTAC” it was 0.927 RPM ratio (pull-down/input).
In the case of “GATGATTGTTCTCCCAGCTGATGAATTCCTAAATTCGAGTAAACAAATTTTCCTAATCTTTCTGTTCAAGCGCCATCTAC” it was 0.915 RPM ratio (pull-down/input); in that of “GATGATTGTTCTCCCAGCTGATGAATTGCGGGTTTCGAGTAAACAAATTTTCCTAATCTTTCTGTTCAAGCGCCATCTAC”, 1.02 RPM ratio (pull-down/input).
In the case of “GATGATTGTTCTCCCAGCTGATGAATTAGCCGTTTCGAGTAAACAAATTTTCCTAATCTTTCTGTTCAAGCGCCATCTAC”, the binding signal is 0.852 RPM ratio (pull-down/input).
The result for “GATGATTGTTCTCCCAGCTGATGAATTGCATATGTCGAGTAAACAAATTTTCCTAATCTTTCTGTTCAAGCGCCATCTAC” reads 1.25 RPM ratio (pull-down/input); that for “GATGATTGTTCTCCCAGCTGATGAATTCTCGCGATCGAGTAAACAAATTTTCCTAATCTTTCTGTTCAAGCGCCATCTAC”, 0.871 RPM ratio (pull-down/input); that for “GATGATTGTTCTCCCAGCTGATGAATTCTAGCACTCGAGTAAACAAATTTTCCTAATCTTTCTGTTCAAGCGCCATCTAC”, 0.855 RPM ratio (pull-down/input).
The result for “GATGATTGTTCTCCCAGCTGATGAATTGTGGGGTTCGAGTAAACAAATTTTCCTAATCTTTCTGTTCAAGCGCCATCTAC” reads 0.939 RPM ratio (pull-down/input); that for “GATGATTGTTCTCCCAGCTGATGAATTGCGGGGGTCGAGTAAACAAATTTTCCTAATCTTTCTGTTCAAGCGCCATCTAC”, 0.857 RPM ratio (pull-down/input).
On to “GATGATTGTTCTCCCAGCTGATGAATTGATCCAGTCGAGTAAACAAATTTTCCTAATCTTTCTGTTCAAGCGCCATCTAC”, for which the binding signal was 0.941 RPM ratio (pull-down/input).
For the sequence “GATGATTGTTCTCCCAGCTGATGAATTGGAATTTTCGAGTAAACAAATTTTCCTAATCTTTCTGTTCAAGCGCCATCTAC”, the binding signal is 0.898 RPM ratio (pull-down/input).
The result for “GATGATTGTTCTCCCAGCTGATGAATTTAATCTTTCGAGTAAACAAATTTTCCTAATCTTTCTGTTCAAGCGCCATCTAC” reads 0.952 RPM ratio (pull-down/input).
The result for “GATGATTGTTCTCCCAGCTGATGAATTTGCCCTTTCGAGTAAACAAATTTTCCTAATCTTTCTGTTCAAGCGCCATCTAC” reads 0.915 RPM ratio (pull-down/input).
The result for “GATGATTGTTCTCCCAGCTGATGAATTGGGGACTTCGAGTAAACAAATTTTCCTAATCTTTCTGTTCAAGCGCCATCTAC” reads 0.803 RPM ratio (pull-down/input); that for “GATGATTGTTCTCCCAGCTGATGAATTACTCACCTCGAGTAAACAAATTTTCCTAATCTTTCTGTTCAAGCGCCATCTAC”, 0.973 RPM ratio (pull-down/input).
Regarding “GATGATTGTTCTCCCAGCTGATGAATTAGCAGCGTCGAGTAAACAAATTTTCCTAATCTTTCTGTTCAAGCGCCATCTAC”, the binding signal is 0.9 RPM ratio (pull-down/input).
In the case of “GATGATTGTTCTCCCAGCTGATGAATTAGGGCCTTCGAGTAAACAAATTTTCCTAATCTTTCTGTTCAAGCGCCATCTAC” it was 0.859 RPM ratio (pull-down/input).
Consider “GATGATTGTTCTCCCAGCTGATGAATTACATGCATCGAGTAAACAAATTTTCCTAATCTTTCTGTTCAAGCGCCATCTAC”, for which the binding signal is 1.4 RPM ratio (pull-down/input).
For the sequence “GATGATTGTTCTCCCAGCTGATGAATTGTTTAACTCGAGTAAACAAATTTTCCTAATCTTTCTGTTCAAGCGCCATCTAC”, the binding signal is 1.29 RPM ratio (pull-down/input).
In the case of “GATGATTGTTCTCCCAGCTGATGAATTCAAGGATTCGAGTAAACAAATTTTCCTAATCTTTCTGTTCAAGCGCCATCTAC” it was 0.883 RPM ratio (pull-down/input).
